Source: the supplement of paper PMC10126150
Values marked as one replicate rest on one cluster of the flow cell; about a third of the high ones do not repeat.

What follows are sequences tested on ATP (assay: switch fluorescence ratio, 500 uM ATP over buffer (Cy3 cluster intensity, sum of 5 cycles each) (fold (ratio)); higher = stronger signal-on switching upon ATP binding; sequences stand for … in TCGTCGGCAGCGTCAGATGTGTATAAGAGACAGTTTTTTTTTTTTTTTTTTTTTTTTT…TC). Details: aptamer strand: ATP DNA aptamer (quencher-CACCTGGGGGAGTATTGCGGAGGAAGG + anchor), 100 nM annealed; ATP concentration: 500 uM; one replicate.
Outline: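 Values give the fluorescence ratio for each switch-domain sequence, averaged from per-cluster ratios of summed target-cycle to summed buffer-cycle Cy3 intensity. The Cy3-labelled switching-strand clusters sat on a modified Illumina MiSeq flow-cell, were annealed to 100 nM quencher-labelled ATP aptamer, and were imaged in selection buffer, then after 15 min with 500 uM ATP at 22 °C. Five cycles ran with NaOH stripping and re-annealing between them, and clusters outside 100-1000 RFU were excluded.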
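Also: ATP exposure 15 min at 22 °C before imaging.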

Row | Sequence | switch fluorescence ratio
1 | CCCTCCCGGA | 1.06
2 | TCGGAAGCTC | 1.4
3 | CAGGGTTGTC | 1.02
4 | TCCAACAGCG | 1.06
5 | AAATTTCAGT | 1
6 | ATGACCTAGT | 1.03
7 | CTATGTTCTA | 1.01
8 | GAGAAGACGG | 1
9 | CATTAGGTAC | 1.03
10 | ATTAGTTCGA | 0.951
11 | CAGATTTATA | 0.992
12 | TTGCCGTCTT | 0.928
13 | GAGCTGGTGT | 1.01
14 | AGCATGAGCC | 1.05
15 | GACACTCAAA | 1
16 | GGCTTAGAAC | 1.02
17 | GAGCTATTAC | 3.19
18 | CTCGCAGGAG | 1.56
19 | TGCAACGCAG | 1.03
20 | CATCAAGACG | 1.11
21 | GTTATATGCA | 1.01
22 | ACCGAACACT | 1.18
23 | GCCTGTCGCG | 1.02

Row | Sequence | switch fluorescence ratio
24 | CATCTAACAC | 1.08
25 | TCAAAATAAC | 1.06
26 | GTTTACACTG | 0.996
27 | ACAAAATAAG | 1.03
28 | ATGGGGGC | 1.08
29 | TTTCAGCTGA | 0.983
30 | TGGGAAACCA | 1.01
31 | TCCGGCTCCT | 1.02
32 | TAGGTAGTCG | 0.956
33 | AAAGTTTAGA | 1.01
34 | GTTAACTTCG | 1.03
35 | GTGATATTTG | 1.01
36 | TGTTAGCCTC | 0.984
37 | GCGAGGACGG | 1.02
38 | ACAAGCTGCA | 1.01
39 | GTTGACTTCG | 1.66
40 | CCGGCGACTC | 1.59
41 | TACAGGCACC | 1.18
42 | AGATCATAGG | 1.01
43 | CCGCTTTCAG | 1.4
44 | TCGATTAGAA | 0.971
45 | CCTGAGTT | 0.999
46 | GCTGGAGAAT | 0.965

Row | Sequence | switch fluorescence ratio
47 | TCGAGCTGTT | 1.06
48 | CCAAGAGACG | 0.977
49 | TGTGGGCC | 1.03
50 | GGTTCCATAT | 1.04
51 | AATTAATCCC | 1.02
52 | CCGGCAAACG | 2.39
53 | GGCGTAGGT | 0.984
54 | GCTTTATGT | 0.996
55 | GACAGACCCG | 1.07
56 | GGTATTTGGA | 0.977
57 | AAAGACCCGC | 1.04
58 | TGGTCTAACT | 1.08
59 | TGAGAGAGGA | 0.946
60 | GGGTTGGATA | 1
61 | GCCATCACGT | 0.996
62 | TCGTACACG | 1.05
63 | GAGATTAGGG | 1.02
64 | TAGAGTCCGG | 1.01
65 | ATTTTCTAAC | 0.952
66 | GTCTAATAGG | 0.999
67 | TAATGTTAGC | 0.913
68 | ACTAAGTGGT | 1.04
69 | TAGTACACCT | 1.25

Row | Sequence | switch fluorescence ratio
70 | GGTACGGGAT | 1.09
71 | GGGCAGTCTG | 1
72 | AGAAGACCCA | 1.03
73 | CTGGCGTGAC | 1.14
74 | GAGCGAGGGT | 0.991
75 | ATACTCTTGT | 0.979
76 | ATATCATAGG | 1.02
77 | TGGCAGTAGG | 0.954
78 | ATGGAGTGGT | 1.04
79 | CCATATTCAG | 0.963
80 | TAAAGACCCG | 0.945
81 | TGGCGTTAGA | 1.04
82 | TAGTAGTAGT | 0.957
83 | TCGGAAGTAA | 1.07
84 | GCTCCCACAC | 3.93
85 | TTACTGAGGG | 1.08
86 | AATTTTCCTA | 1.01
87 | GGCCTGCTTA | 0.967
88 | TGCATGAGAC | 1.06
89 | GCCGCCAAAA | 3.9
90 | ACACAGAGGC | 1.02
91 | ACACCCGGTC | 1.15
92 | TCATGCTCGG | 1.03

Row | Sequence | switch fluorescence ratio
93 | GTGTGTGCGA | 1
94 | GTGCCGTA | 0.983
95 | TTATAAATA | 1.03
96 | CGCACTGGAG | 1.07
97 | CCGAATTTG | 1.05
98 | TTATATCTCA | 0.999
99 | ACCGAGTAGC | 1.04
100 | CTTCTTATTA | 0.983
101 | TTCTTTTGTC | 1.01
102 | CTGTATACAC | 1.07
103 | TTCAGGGCCA | 0.99
104 | GATATTAGAA | 0.973
105 | GGGGATACCA | 1.02
106 | GGAACGCTT | 1.04
107 | TGGGAGTGTG | 1.01
108 | GATCCTCTGA | 1.07
109 | CTTAAAAGTC | 0.988
110 | GATCATTGCG | 0.959
111 | AAGTTCTGAC | 1.02
112 | CAAGAATGAC | 1.04
113 | GTCTTCCGTG | 0.996
114 | CTATTGGGGA | 0.975
115 | GCGCTACTAT | 1.04

Row | Sequence | switch fluorescence ratio
116 | TACGATCCTG | 1.01
117 | CGTCGTGAGA | 1.01
118 | CACCCTTTTG | 1.04
119 | GGTGCATTGC | 1.06
120 | CAGCCTTAGG | 1
121 | AGAGCTAAGA | 1
122 | GGTTCTTGTA | 0.99
123 | CGCGCCTGGG | 1.08
124 | GACAAGGAGC | 0.96
125 | GCCGCAACCG | 1.84
126 | TGGTGATGAT | 0.99
127 | GATAAACGAG | 0.977
128 | TTACTACTGC | 1.06
129 | GCTGCTCAAT | 1.22
130 | CAGTTTTTTG | 0.949
131 | CCTAAAAAAA | 3.19
132 | GGGCAAGAGG | 1.09
133 | CTAAGAAAAG | 1.04
134 | TTGGTGTAAA | 1.04
135 | ACTTTGCGAA | 1.14
136 | CCCCAATCGG | 1.18
137 | CTGCCTATTC | 1.01
138 | AAGAGAGGAG | 1.01

Row | Sequence | switch fluorescence ratio
139 | ATACCAGATC | 1.07
140 | ACTGTTGAGC | 0.988
141 | TCAGGGTTCT | 0.956
142 | TCCGTCGGAT | 1.08
143 | TAATGCTCTC | 1.02
144 | TAGTTGTCGC | 0.996
145 | ACAGGGTGCT | 1.09
146 | AACTAACGG | 1.33
147 | AAAACCGGTA | 1.06
148 | AAATGGTGTT | 1.06
149 | AGTCTTTTGG | 0.987
150 | TTACTCATAA | 1.09
151 | GAATTTACTA | 1.01
152 | ACGTTGGGAG | 0.97
153 | AATCATGTTA | 0.996
154 | CGGGAACGTT | 1.01
155 | GTTCAAACGT | 1.03
156 | GTCCAGGGCC | 1
157 | AACCAGATAG | 1.02
